The campaign covered roughly 320,000 compounds. About 9,100 (2.8%) were called active. This list was built around the results that the source calls inconclusive (neither active nor inactive); the mix of calls is not that of the screen. The call rests on the fitted dose curve; in most records, active means well fitted activation curve with a large enough effect; inconclusive means small, poorly fitted or top-dose-only effect; inactive means no such curve, though single readings can be large or run the other way. No potency is given beside an inconclusive call; the fits are too rough.
Test: qHTS Assay for Rab9 Promoter Activators; further: nearly all actives have a fitted effect of over 60% in size; on activation, negative = inhibition: % of control where 0% means no effect
Conditions: Huh7 Rab9 promoter-luciferase reporter, luminescence, 24 h; series mostly up to 9.22 µM; activation, negative = inhibition: at the top concentration
In short: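 Rab9 promoter-driven luciferase in stably transfected Huh7 cells; 1500 cells/well rested 2 h, exposed to compound in DMSO for 24 h at 37 °C, 5% CO2. Luminescence read 10 min after adding luciferase reagent at ambient temperature.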
Potency means the concentration at half of the fitted maximal effect; tags describe the fitted curve by direction and shape.

Row | Compound | Potency | activation, negative = inhibition
1 | Cc1cc(C)cc(CC2CC(=O)N(c3nc(C)cc(C)n3)C2=O)c1 (stereo unspecified) | inconclusive [activator, single point] | –
2 | CCCc1cc(C(=O)Nc2nnc(C)s2)cs1 | active: 3.55 µM | –
3 | CCOc1ccc2nc(SCC(=O)Nc3ccc4[nH]c(=O)[nH]c4c3)[nH]c2c1 | – | inactive: 0.648%
4 | COc1ccc2cc(C(=O)NC3CCCCC3)c(=O)oc2c1 | inconclusive [activator, partial curve] | –
5 | O=C(CSc1nnc(-c2ccc(C(F)(F)F)cn2)o1)Nc1cccc(Cl)c1 | inconclusive [activator, partial curve] | –
6 | COc1ccc(NC(=O)N2CCCCCC2)cc1 | – | inactive: 13.8%
7 | CCCC(=O)Nc1ccc(NC(=O)c2ccco2)c(OC)c1 | inconclusive [activator, single point] | –
8 | O=C(NC1=NC2CCCCC2N1)c1ccccc1 (stereo unspecified) | active: 0.316 µM | –
9 | Cc1ccc(C)c(NC(=O)Nc2ccc3c(c2)OCO3)c1 | inconclusive [activator, partial curve] | –
10 | CCCc1cc(C(=O)Nc2cccc(Cl)c2C)no1 | inconclusive [activator, partial curve] | –
11 | CN(CC(=O)Nc1ccccc1Br)C(=O)CCC1CCCC1 | inconclusive [activator, partial curve] | –
12 | c1ccc(-c2nccc(-c3ccc4c(c3)OCO4)n2)cc1 | inconclusive [activator, single point] | –
13 | CN(C)c1ccc(N=Nc2ccc(C(=O)O)cc2)cc1 | active: 0.0002 µM | –
14 | CCOC(=O)N1CCN(c2nc(C)c3c(n2)CCCC3=O)CC1 | inconclusive [activator, single point] | –
15 | O=C(COc1ccccc1)Nc1ccc2c(c1)nc1n2CCOC1 | inconclusive [activator, single point] | –
16 | Cn1nccc1C(=O)Nc1sc2c(c1C(N)=O)CCCC2 | inconclusive [activator, single point] | –
17 | COc1cccc(N=Cc2c(O)c3ccccc3oc2=O)c1 | – | inactive: 6.09%
18 | CCn1cc(Cl)c(C(=O)Nc2ccc(OC)c(OC)c2)n1 | inconclusive [activator, single point] | –
19 | Cn1c(=O)c(C(=O)NCc2ccccc2)c(O)c2ccccc21 | inconclusive [activator, single point] | –
20 | O=C(N/N=C/c1ccccc1Cl)c1cccc(F)c1 | active: 2 µM | –
21 | COc1cccc(/C=C2\SC(N3CCCC(C)C3)=NC2=O)c1OC (stereo unspecified) | inconclusive [activator, single point] | –
22 | Cc1ccc(S(=O)(=O)N2CCOC2CNC(=O)C(=O)NCC(C)C)cc1 (stereo unspecified) | – | inactive: -1.46%
23 | CSc1nc2ccc(NC(=O)c3ccc(=O)n(C)n3)cc2s1 | inconclusive [activator, partial curve] | –
24 | COc1ccc(C(=O)Nc2ccc3ccccc3n2)c(OC)c1OC | inconclusive [activator, full curve] | –
25 | O=C(c1ccccn1)N1CCN(S(=O)(=O)c2ccccc2)CC1 | – | inactive: -4.35%
26 | O=C(CSc1ccccn1)Nc1ccc2[nH]c(=O)[nH]c2c1 | – | inactive: -1.1%

Row | Compound | Potency | activation, negative = inhibition
27 | CCOC(=O)CC(=O)CSc1ncnc2c1cnn2-c1ccccc1 | inconclusive [activator, single point] | –
28 | CCC(Cc1ccccc1)NC(=O)C1=C(C)C(=O)OC12CCC(C)CC2 (stereo unspecified) | – | inactive: -0.809%
29 | CC(=O)c1ccc(NC(=S)N2CCCCCC2)cc1 | inconclusive [activator, single point] | –
30 | CCNC(=O)COC(=O)c1[nH]c(C)c(C(=O)OC)c1C | inconclusive [activator, single point] | –
31 | O=C(NCCc1cccc(Cl)c1)c1cccs1 | active: 1.78 µM | –
32 | CCc1c(C)nc2cc(-c3ccc(Cl)cc3)[nH]n2c1=O | inconclusive [activator, single point] | –
33 | CSc1ccccc1NC(=O)c1ccc(N2CCCC2=O)cc1 | inconclusive [activator, partial curve] | –
34 | Cc1ccc(NC(=O)C2Cc3ccccc3O/C2=N\O)cc1C (stereo unspecified) | inconclusive [activator, single point] | –
35 | CCOc1ccc(Nc2ncnc3ccc([N+](=O)[O-])cc23)cc1 | – | inactive: -6.28%
36 | Cc1cccc(NC(=S)NC(=O)c2ccco2)c1C | inconclusive [activator, single point] | –
37 | CCOC(=O)N/N=C(C)/C=C/c1ccccc1 | inconclusive [activator, single point] | –
38 | O=C(CSCc1cccc(F)c1)NCc1ccccc1 | inconclusive [activator, single point] | –
39 | Cc1c(C(=O)N2CCc3ccccc32)oc2c1C(=O)CC(C)(C)C2 | inconclusive [activator, single point] | –
40 | O=c1c(=NNc2ccccc2Cl)c(=O)c2ccccc12 | inconclusive [activator, single point] | –
41 | O=C(NCCc1cccc(Cl)c1)c1cccnc1 | inconclusive [activator, partial curve] | –
42 | CC(OC(=O)CCCN=C1NS(=O)(=O)c2ccccc21)C(=O)Nc1ccccc1F (stereo unspecified) | – | inactive: -4%
43 | O=C(/C=C/c1cccc(O)c1)c1ccc(N2CCOCC2)cc1 | inconclusive [activator, partial curve] | –
44 | CC(=O)c1c(C)[nH]c(C(=O)CSc2nnc(C)s2)c1C | inconclusive [activator, single point] | –
45 | COc1ccc(-c2nn(-c3ccccc3)cc2CO)cc1 | inconclusive [activator, partial curve] | –
46 | COc1ccc(/C=C/C(=O)O/N=C(\N)c2ccccc2)cc1OC | inconclusive [activator, single point] | –
47 | COc1cn(-c2ccccc2)nc1C(=O)Nc1ccc(C)cc1 | inconclusive [activator, partial curve] | –
48 | Cc1cc(C)n(C(N)=NC(=O)c2ccc([N+](=O)[O-])cc2)n1 | active: 2.51 µM | –
49 | Cc1ccc(C(=O)Nc2ccc3c(c2)OCO3)cc1NC(=O)c1ccco1 | inconclusive [activator, single point] | –
50 | CCOC(=O)N1CCN(C(=O)Nc2ccc3nc(-c4ccccn4)c(-c4ccccn4)nc3c2)CC1 | – | inactive: 3.5%
51 | CCCNC(=O)c1c(Cl)cnn1-c1ccc(C)cc1 | active: 2.51 µM | –
52 | Cc1ccc(OCC(=O)O/N=C(\N)c2cccnc2)cc1 | inconclusive [activator, single point] | –

Row | Compound | Potency | activation, negative = inhibition
53 | CCOC(=O)C1CCN(C(=O)CN2C(=O)COc3ccc(C(C)(C)C)cc32)CC1 | – | inactive: -3.12%
54 | Cc1ccccc1CN(C)CC(=O)NC(C)CCc1ccccc1 (stereo unspecified) | – | inactive: 0.906%
55 | COc1cc(C(=O)N2CCN(S(=O)(=O)c3cccs3)CC2)cc(OC)c1C | inconclusive [activator, single point] | –
56 | COc1ccc(-n2cnc3cc(C(=O)N4CCOCC4)ccc32)cc1 | inconclusive [activator, single point] | –
57 | O=C(O)c1ccc(S(=O)(=O)/N=C2\C=C(Nc3ccccc3F)C(=O)c3ccccc32)cc1 | – | inactive: -4.49%
58 | Fc1cccc(/C=N/Nc2ccc(Cl)nn2)c1 | inconclusive [activator, single point] | –
59 | CCNc1nc(NCC)n2c(SCC(=O)NC34CC5CC(CC(C5)C3)C4)nnc2n1 | inconclusive [activator, single point] | –
60 | COc1ccc(-c2nc(-c3cccnc3)no2)cc1OC | inconclusive [activator, single point] | –
61 | CCOc1ccc(NC(=O)CSc2nccn2C)cc1 | inconclusive [activator, partial curve] | –
62 | N#Cc1nc(-c2ccc(Cl)cc2)oc1NCC1CCCO1 (stereo unspecified) | inconclusive [activator, single point] | –
63 | COc1cc(NS(C)(=O)=O)ccc1Nc1c2ccccc2nc2ccccc12 | inactive | –
64 | c1ccc2c3c([nH]c2c1)-c1[nH]ncc1CC3 | inconclusive [activator, single point] | –
65 | Cc1ccc(-c2onc3ccc(C4(C)OCCO4)cc23)cc1 | – | inactive: -1.83%
66 | O=C(NCc1ccccn1)c1ccc(-c2ccccc2)cc1 | inconclusive [activator, partial curve] | –
67 | COC(=O)c1ccc(OS(=O)(=O)N(C)C)cc1 | inconclusive [activator, single point] | –
68 | CC(=O)NC12CC3CC(C1)CC(C(=O)Nc1nc4ccc(F)cc4s1)(C3)C2 | inconclusive [activator, single point] | –
69 | Cc1ccc(-c2csc(-c3ccncc3)n2)cc1 | active: 3.98 µM | –
70 | Cc1c(C(=O)N2CCC[C@H]2CO)oc2c(F)cccc12 | inconclusive [activator, partial curve] | –
71 | Cc1cc(C)n2cc(CSc3nc4ccccc4s3)nc2n1 | active: 3.55 µM | –
72 | COc1ccccc1/C=C/c1nc(C#N)c(N(C)C)o1 | inconclusive [activator, single point] | –
73 | CC(C)(C)C(C(=O)Oc1ccccc1)c1ccccc1 (stereo unspecified) | – | inactive: -1.93%
74 | Cc1nn(C)c(C)c1CNC(=O)Nc1ccc2c(c1)OCO2 | inconclusive [activator, partial curve, poor fit] | –
75 | COC(=O)c1ccc(N=NN2CCCCCC2)cc1 | active: 3.16 µM | –
76 | CC1CC1C(=O)Nc1nc(-c2ccccn2)cs1 (stereo unspecified) | inconclusive [activator, single point] | –

Reference: PubChem BioAssay AID485297 (National Center for Advancing Translational Sciences (NCATS), 2010)
